Data: the RNAGym collection of RNA variant scans (doi:10.1073/pnas.2313332121)
Variants at the floor of the assay are shown more often than the library holds them.

B1: TPR 5TU (parent)
chain: GGAUCUUCUCGAUCUAACAAAAAAGACAAAUCUGCCACAAAGCUUGAGAGCAUCUUCGGAUGCAGAGGCGGCAGCCUUCGGUGGCGCGAUAGCGCCAACGUUCUCAACUAUGACACGCAAAACGCGUGCUCCGUUGAAUGGAGUUUAUCAUG

Variants of: B1
Assay: polymerase ribozyme fitness, log enrichment relative to wild type (log ratio); higher = more active; in vitro selection for triplet polymerase activity
Outline: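 Each subunit of a heterodimeric triplet polymerase ribozyme was mutagenized into a library by PCR, transcribed, and subjected to one round of in vitro selection, run in triplicate. Libraries were annealed with a biotinylated primer, the partner subunit and triplets, incubated frozen at −7 °C, and extended constructs were gel-excised, captured on streptavidin beads and recovered by RT-PCR. Input and output libraries were sequenced on Illumina, keeping genotypes with ≥10 input reads and ≥1 read per output. Fitness is log base 2 of genotype enrichment divided by wild-type enrichment, from inverse-variance-weighted replicate averages.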

| Variant | polymerase ribozyme fitness (log ratio) |
| --- | --- |
| C75U A121G | -0.596 |
| G68U C75A G81U G83A C95U C96U C116U | -1.31 |
| C69A G83C | -3.07 |
| A73C C96G C118U G143U | ≤ -4.2 |
| G74A C75G G83U A97G | ≤ -4.2 |
| A66G C85G A119C A122U | ≤ -4.2 |
| C75U C96G | 0.716 |
| C75G U104A G143C | ≤ -4.2 |
| A66G C93A C95A C96U C116U | ≤ -4.2 |
| C72U C95U C96U U146A | -2.06 |
| G67U C76U G80C C93U C103G | ≤ -4.2 |
| C75A C93A | ≤ -4.2 |
| G68C U78C G84C U146A | ≤ -4.2 |
| A66U A98U U101A | ≤ -4.2 |
| G65A C85U A97U | -2.46 |
| A73G U145G | -0.0134 |
| C75U G88A A147G | ≤ -4.2 |
| G70A A97U | -3.59 |
| G71U G141U | -3.55 |
| A73G U144C A150C | ≤ -4.2 |
| A66C G92A C105A C116A G126C G141A | ≤ -4.2 |
| G68A C87A A106C G117U | ≤ -4.2 |
| G71C C76A G88A G94A A113G A119U C129U | ≤ -4.2 |
| C72U G128U | -3.1 |

| Variant | polymerase ribozyme fitness (log ratio) |
| --- | --- |
| G68A G92C | -4.16 |
| G68C U104G C105G C118U G133C | ≤ -4.2 |
| G65U A66C U77A A147C | ≤ -4.2 |
| A66G G81U C87G C99U U104G U134A A142U | ≤ -4.2 |
| G68A C123U | -3.89 |
| C69U C93A U102G C103G | ≤ -4.2 |
| G74A U77G G83A | ≤ -4.2 |
| C72A A97U C99A | ≤ -4.2 |
| A66C G71A G94A A97U C116A U144A | ≤ -4.2 |
| G71A G80U C85U | ≤ -4.2 |
| C69A C85U U101G U148G | ≤ -4.2 |
| C75G C85U C129A | ≤ -4.2 |
| G67A U78C C96U G133U | ≤ -4.2 |
| G74A A110C | ≤ -4.2 |
| C69A A91C A122U A142C | ≤ -4.2 |
| A66G C79G U102G A138U | ≤ -4.2 |
| C72U A73C A106C C125A C132A | ≤ -4.2 |
| G67A G86A C114U U145G | ≤ -4.2 |
| G68U C76A C105U U135A | ≤ -4.2 |
| C75A C87U C96U | ≤ -4.2 |
| G70A G124U U135C A138U | ≤ -4.2 |
| G70C C132G | ≤ -4.2 |
| G71C C87G C93A A107G C149U | ≤ -4.2 |
| A66C G84A C87U | ≤ -4.2 |

| Variant | polymerase ribozyme fitness (log ratio) |
| --- | --- |
| C69G C96A C105G C108G A113U | ≤ -4.2 |
| G68A G81U C96G A107C G124C | ≤ -4.2 |
| G68U C103U G141C | ≤ -4.2 |
| G71U G81C A89C | ≤ -4.2 |
| G70A A91U C123U A138C C149U | ≤ -4.2 |
| G74C U82C C87U | ≤ -4.2 |
| C75G C93U C108G G124A | ≤ -4.2 |
| C69U C75U G92A U102G U111G C123A U148A | ≤ -4.2 |
| C75A C95U C108G G140U | ≤ -4.2 |
| G68A A106C A120G A138C | ≤ -4.2 |
| G67C G71C G86A A107U A121U U144G | ≤ -4.2 |
| A73G C75G U82C | ≤ -4.2 |
| G68C A98U C108G A113G | ≤ -4.2 |
| A66C G70A G71A G100U G143A U148G | ≤ -4.2 |
| A66U G68A C72G G92U | ≤ -4.2 |
| G67U C93U | -3.74 |
| G67C C87U | ≤ -4.2 |
| C72G G86C | ≤ -4.2 |
| G71A C85U G133A | ≤ -4.2 |
| A73U C93U C103A U104A A115C | ≤ -4.2 |
| G65A C93U | -1.96 |
| A73G C85A C87A U101C A115G U130A C131A | ≤ -4.2 |
| G71A G74U G152U | ≤ -4.2 |
| G65U G71C A73U A122U G126A A137C U146A | ≤ -4.2 |

| Variant | polymerase ribozyme fitness (log ratio) |
| --- | --- |
| A66G C116U | ≤ -4.2 |
| A66U C69G U78G G81U C85U | ≤ -4.2 |
| G74U C75A G86U A97U A106G A150U | ≤ -4.2 |
| G67A G94C C95U | ≤ -4.2 |
| C75A C96G G141U | ≤ -4.2 |
| G71A C85U C96A A107G C118A | ≤ -4.2 |
| A73G U148C A150G | ≤ -4.2 |
| C72G U77G G84A C114G | ≤ -4.2 |
| G68A G74C G88A | ≤ -4.2 |
| C75G G83C A89G C118U G141U | ≤ -4.2 |
| G71A G84U A138C G141C | ≤ -4.2 |
| C75A C118U | ≤ -4.2 |
| G74A A97U C103A C125U G136U U145G | ≤ -4.2 |
| C72A C114A | ≤ -4.2 |
| A66C C76U C99U A107U U111A | ≤ -4.2 |
| A73U U90G C96G U130C U139G | ≤ -4.2 |
| G68C U78C C96A A98G G143A | ≤ -4.2 |
| C72A U104G A106U C131U U145C U146A | ≤ -4.2 |
| A66U C96A G100U A107U | ≤ -4.2 |
| A73U C75G G88C | ≤ -4.2 |
| C69A A73C G84U U109C C118A | ≤ -4.2 |
| G70C G80C A142G | ≤ -4.2 |
| G67C U77C G86U C129U A147U | ≤ -4.2 |
| A66G G68U G71U G81A G92U A137G | ≤ -4.2 |

| Variant | polymerase ribozyme fitness (log ratio) |
| --- | --- |
| C75U G128A | -3.95 |
| G74U G81C A121C U146G | ≤ -4.2 |
| C69U A106C | -2.21 |
| G65C A66C C93U C99G | ≤ -4.2 |
| C69G | -1.51 |
| C69U | -1.03 |
| C69A | -1.57 |
| A73G U148A | -3.81 |
| C75U G88A A119U | ≤ -4.2 |
| C69U A107C A119G G124A | ≤ -4.2 |
| A66C C96U | ≤ -4.2 |
| A66G G100C A107C C114U A122C G133C | ≤ -4.2 |
| C72A C85A | -3.85 |
| A66C U82C A91U C99A A115C | ≤ -4.2 |
| A66G G71U C76A C87U C96U A138C U144G | ≤ -4.2 |
| G74A A89U C93G G140U | ≤ -4.2 |
| G74C C103G G141A U145G A147U G152A | ≤ -4.2 |
| A73G U134G | -2.2 |
| G71U G83U | -3.48 |
| G67U C85U G86A C103G U109G C118G | ≤ -4.2 |
| A66U U77C C85U | ≤ -4.2 |
| C75U C93G A121U C123U | -2.27 |
| C75G C76G G81U C95G | ≤ -4.2 |
| G68A G88U C103G C108A C118U U139G | ≤ -4.2 |

| Variant | polymerase ribozyme fitness (log ratio) |
| --- | --- |
| C72U U77A G141C | ≤ -4.2 |
| A66G U78G C114U U146G | ≤ -4.2 |
| C69G A73C U77C G84A C118U C131A U139G | ≤ -4.2 |
| G68C G80U A89U C95U U104G U134A A142G | ≤ -4.2 |
| G68A A122G G133C | ≤ -4.2 |
| G65C G86U U139A | ≤ -4.2 |
| A73C G84U C93A U146G | ≤ -4.2 |
| G74A C85G G141A | ≤ -4.2 |
| C75G G83C G124U | ≤ -4.2 |
| G67C G86C C96A G112U A113U G126U | ≤ -4.2 |
| A73G C114U | -2.66 |
| G70U A119C | -2.09 |
| G67A G68C | ≤ -4.2 |
| G74A A106G A122U | ≤ -4.2 |
| C69G C72U | -2.71 |
| C69U C79U A106C C114U A119C | ≤ -4.2 |
| A66G C76G U90G C93U C96G G117U | ≤ -4.2 |
| G65U G94A | ≤ -4.2 |
| A66U U90A G124A | ≤ -4.2 |
| G70A C85A | ≤ -4.2 |
| G74A G84A A89G | ≤ -4.2 |
| G68C C114U U146C | ≤ -4.2 |
| G71U G84U U101C G117U C123U | -4.15 |
| G71C A119G | -3.01 |

| Variant | polymerase ribozyme fitness (log ratio) |
| --- | --- |
| C69U G84U A91G A113U | ≤ -4.2 |
| A73G A110G G143A | ≤ -4.2 |
| G74C U90C A91C U104G U130A | ≤ -4.2 |
| G67A G88U | ≤ -4.2 |
| A64U C69U | ≤ -4.2 |
| A73G C93A U146C | -2.15 |
| G67A G74A | ≤ -4.2 |
| G68A C85U A97U A107U G128A C132U | ≤ -4.2 |
| G67A G70C A89U U90G A97C C125U | ≤ -4.2 |
| G74A A91G | ≤ -4.2 |
| G71U G74C A120C | ≤ -4.2 |
| A73U G81U A106G A115G A119U A147C | ≤ -4.2 |
| C75U G92U G112C A113U C114G | ≤ -4.2 |
| A66G C95U A138C | ≤ -4.2 |
| C72A U148A | ≤ -4.2 |
| A73U A119G C125U G140A | ≤ -4.2 |
| G67A C85A A122G | ≤ -4.2 |
| C75U G92A C125A U145C | ≤ -4.2 |
| C75A C95U C108U C114U | ≤ -4.2 |
| A64U C95U C114U | ≤ -4.2 |
| G67U C76G G143A A150G | ≤ -4.2 |
| A66C G92C | ≤ -4.2 |
| G68C G92U G136U U144A | ≤ -4.2 |
